Measured values from the RNAGym collection of RNA variant scans (doi:10.1093/nar/gkz1192).
The source gives no read counts; variants with many changes may rest on few reads.

B1: CPEB3 Ribozyme (parent)
chain: UAACAGGGGGCCACAGCAGAAGCGUUCACGUCGCAGCCCCUGUCAGAUUCUGGUGAAUCUGCGAAUUCUGCUGUAUAUCUC

Variants of: B1
Assay: self-cleavage, relative activity (ratio to wild type); higher = more cleavage; in vitro, sequencing
Summary of the method: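 After error-prone PCR and barcoding, CPEB3 ribozyme mutant libraries were transcribed with T7 RNA polymerase at 37°C for 5 hours, then given 15 min with DNase I before an EDTA stop, and they cleaved during both steps. Reverse transcription with template switching preceded Illumina sequencing. Relative activity divides a variant's cleaved/total read fraction by the unmutated ribozyme's. At least 5 reads were required per variant, and three batches were averaged.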

| Variant | self-cleavage |
| --- | --- |
| A5G U58A U60C | 0.26 |
| A5G U58C U66C U72A | 0.25 |
| A5U A13U A35G A64G | 1.12 |
| A5U A13G U25C G30A U43G U60C G70C | 0.07 |
| A5U A13G C27U U54A U78A | 0.14 |
| A5G U25C U26C A28U U41G | 0.42 |
| A5G U25A U31C U41G A56G U66C U69C | 0 |
| A5G U31C A35G U41C U72A | 0.36 |
| A5G U43C C68A | 0.26 |
| A5U A13U A28C | 1.1 |
| A5G U25C G30A A56G U60C U74A | 0.11 |
| A5G U41A U54C A64G | 0.23 |
| A5G U43C G46A U54C A56U | 0.28 |
| A5G U66C U67C | 0.27 |
| A5G U48C A64U U66C | 0.17 |
| A5G U41A U49C A64U | 0.16 |
| A5U A13U A45G U67A | 0.57 |
| A5G U69C U80G | 0.43 |
| A5G U48C U51C G52U U60A A65G U78C | 0.06 |
| A5G U48C A57G | 0.63 |
| A5G U25C G33A | 0.7 |
| A5G U66C U74A U80C | 0.25 |
| A5G U48C U58A | 0.53 |
| A5G U41C U72A | 0.33 |

| Variant | self-cleavage |
| --- | --- |
| A5G U43C U51A A64G U78A | 0.42 |
| A5G U48C U60C | 0.03 |
| A5G U26G C38A U41A G61C | 0.11 |
| A5G U26C U80C | 0.5 |
| A5G U51A A65G | 0.38 |
| A5G U25C C27A U41A A64G | 0.09 |
| A5G U48C A56G | 0.37 |
| A5G U25A U43A U72G | 0.31 |
| A5G U25C U60C U78C | 0.06 |
| A5G U26C U54A A65G U67C | 0.22 |
| A5G U25C U69A U72C | 0.2 |
| A5G U43A A56G U69A | 0.1 |
| A5U A13C U26C C34G | 0.48 |
| A5G U26C A64U U69C | 0.21 |
| A5G U26A U72C A75G | 0.32 |
| A5G U54C A64G U78A | 0.81 |
| A5U A13U A57G | 0.75 |
| A5G U31G A35U U60C | 0.23 |
| A5G U48A A64G | 0.29 |
| A5G U31C U49C A57C U80A | 0.09 |
| A5G U41A U69C | 0.28 |
| A5G U31A U41C C44U U69C U78C | 0.06 |
| A5G U25C G33C A47G | 0.31 |
| A5G U25C A28U U43A | 0.64 |

| Variant | self-cleavage |
| --- | --- |
| A5G U31A U49C U72A U80C | 0.11 |
| A5G U25C A35U U80C | 0.14 |
| A5G U25A A35U U49C U51C | 0.28 |
| A5U A13G C14U U41C | 1.04 |
| A5U A13G A45G U48A A56G U80A | 0.29 |
| A5G U54A U58A | 0.09 |
| A5U A13C U48C U51A U72A C81U | 0.13 |
| A5G U26G U67C A77U U78C | 0.07 |
| A5G U69C A77G | 0.54 |
| A5G U25C G73C U80A | 0.61 |
| A5G U43A U49C U58A | 0.1 |
| A5U A13U A15G U41C U78C | 0.6 |
| A5U A13C C23U A45G U54C U76A | 0.17 |
| A5G U41C U51C U60A U76C | 0.11 |
| A5U A13C C40A U60A U74C | 0.45 |
| A5G U41C U43A U49C U72C U80C | 0.27 |
| A5G U51G U60C | 0.47 |
| A5U A13U G16A A18C U25C U80A | 0.08 |
| A5G U31C U60C A64G | 0.08 |
| A5G U25C U43C U54G A75U | 0.17 |
| A5G U31G C40U G63A | 0.11 |
| A5G U25C A28G C34U A65G | 0.26 |
| A5G U49C G70A | 0.28 |
| A5G U51C U69C | 0.47 |

| Variant | self-cleavage |
| --- | --- |
| A5G U41A A56U | 0.11 |
| A5G U54A A56U U78C | 0.5 |
| A5G U43C G73A | 0.98 |
| A5G U74C A75G | 1.09 |
| A5G U26C C40A | 0.04 |
| A5G U26A C37A U51C U54G | 0.08 |
| A5G U43C C44U U80C | 0.13 |
| A5U A13G U41C U48C A77G | 0.21 |
| A5G U48C U51A U54A | 0.21 |
| A5G U25C A65G U72A U80A | 0.08 |
| A5U A13U C23U A47G | 0.21 |
| A5G U48C U51C A64U | 0.11 |
| A5G U78G C79A | 1.06 |
| A5G U78G C79U | 0.67 |
| A5G U25C U48C | 0.45 |
| A5G U67C A75G | 0.55 |
| A5U A13G U31A U72C | 0.82 |
| A5G U48C U51C A65G | 0.36 |
| A5G U43C U76C U78A | 0.46 |
| A5G U26A C34U U51C U74C | 0.25 |
| A5G U26C U41A G46A A64G | 0.35 |
| A5U A13U A18G C29U U41A U67C | 0.1 |
| A5G U31G A64C U74A | 0.21 |
| A5G U31C U43C U51G | 0.13 |

| Variant | self-cleavage |
| --- | --- |
| A5G U49C U69C U72A | 0.07 |
| A5G U49A G53A A64G U74C | 0.22 |
| A5U A13U A15G A21G A35U A56U | 0.12 |
| A5G U41A U72G A77U U80A | 0.07 |
| A5G U26C A64G U72A U80C | 0.11 |
| A5G U25C U31A C50A G70C | 0.07 |
| A5U A13U A18G U25C A28U A64G | 0.24 |
| A5U A13G A21G | 0.76 |
| A5G U25C U31A A45U U54G U80C | 0.05 |
| A5G U25C G33A A35U U58C U74C A75U | 0.18 |
| A5G U43A A45G A56G A65G | 0.39 |
| A5G U31A C38A A45U U60C U78C | 0.08 |
| A5U A13U A18U A20U A35G U78C | 0.18 |
| A5G U51C U76A | 0.64 |
| A5G U25A U58C A64G | 0.15 |
| A5G U25C G46U U69C | 0.23 |
| A5G U51C G52A U58C U72A | 0.21 |
| A5G U41A U43C G53C | 0.31 |
| A5G U41C U51A | 0.4 |
| A5G U41C U51G | 0.12 |
| A5G U60A U78C | 0.19 |
| A5G U25C A57G U60C | 0.26 |
| A5G U41C A57U | 0.3 |
| A5G U48C A64U U69C | 0.1 |

| Variant | self-cleavage |
| --- | --- |
| A5G U43A U48C G55U U72C | 0.22 |
| A5G U43A A64U U76G | 0.09 |
| A5G U31C U54A U60C U74C | 0.19 |
| A5G U43A U49C | 0.11 |
| A5G U72C G73A | 1.27 |
| A5G U26A U41C U48C U69A | 0.6 |
| A5G U43C U69A U78A | 0.29 |
| A5G U43C U78C U80A | 0.6 |
| A5G U25C A45G A56G A77C | 0.61 |
| A5G U41A A56G U67C | 0.11 |
| A5G U25C A28G G33U U60C A64C | 0.06 |
| A5G U41C U74A | 0.68 |
| A5G U54C U60C U69C | 0.09 |
| A5G U25C U41C A45G U49C U80C | 0.13 |
| A5G U26C U54A G63A U78C | 0.14 |
| A5G U41A G55U U58A U67C | 0.12 |
| A5G U26C U43C U74C | 0.53 |
| A5G U41A A45C A75U | 0.38 |
| A5G U51C U74G | 1.02 |
| A5U A13G C38G | 0.36 |
| A5G U51C A56U U80G | 0.38 |
| A5G U25C A35G U51A | 0.18 |
| A5G U66G U78C | 0.29 |
| A5G U31G A47G U74C | 0.27 |

| Variant | self-cleavage |
| --- | --- |
| A5G U51C U60C U78C | 0.24 |
| A5U A13G G33A U76C A77G | 0.56 |
| A5G U31C C79A | 0.83 |
| A5G U41C G55U | 0.84 |
| A5G U31A U41C | 0.46 |
| A5G U26C U31C A65G | 0.48 |
| A5G U25C A45G U67C U76C A77G | 0 |
| A5U A13U U25C A28G U54A | 0.47 |
| A5G U43C A64G U78C | 0.21 |
| A5G U43C U60C U69A A75U | 0.08 |
| A5G U54A U78C | 0.87 |
| A5U A13U A20G A47U | 0.57 |
| A5G U43C A45G U48C A64G | 0.32 |
| A5G U25C A35U U41A G42C U43C U60G | 0.04 |
| A5U A13G A15U G33A A47G A64U | 0 |
| A5G U26C U51C U80C | 0.29 |
| A5G U25C C27U A35G A45G A64G | 0.15 |
| A5G U51A U54G U58C A75G | 0.08 |
| A5G U76A A77G | 0.61 |
| A5G U41A U51C U60A | 0.12 |
| A5G U31C U41C G63U A65G | 0.25 |
| A5G U41G G61A A64G | 0.22 |
| A5G U25C U43A A45C | 0.4 |
